Measurements published in PMC6919601, “Identification of Plasmodium dipeptidyl aminopeptidase allosteric inhibitors by high throughput screening” (PLoS ONE, 2019).
Hit rate of the full screen: of about 110,000 compounds, about 230 (0.21%) showed an effect of 50% or more. The list shows a part of the results.

Biological target: DPAP1 (Plasmodium falciparum, UniProt Q8IIJ9)
Test: primary screen, percent inhibition; read by cleavage of a fluorogenic dipeptide substrate; higher = more effect of the substance
Parameters: species or system P. falciparum D10 trophozoite lysates; single well
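Also: 30 min substrate incubation versus DMSO and 10 µM JCP410 controls.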

DPAP1, sequence (Q8IIJ9 whole entry, looked up): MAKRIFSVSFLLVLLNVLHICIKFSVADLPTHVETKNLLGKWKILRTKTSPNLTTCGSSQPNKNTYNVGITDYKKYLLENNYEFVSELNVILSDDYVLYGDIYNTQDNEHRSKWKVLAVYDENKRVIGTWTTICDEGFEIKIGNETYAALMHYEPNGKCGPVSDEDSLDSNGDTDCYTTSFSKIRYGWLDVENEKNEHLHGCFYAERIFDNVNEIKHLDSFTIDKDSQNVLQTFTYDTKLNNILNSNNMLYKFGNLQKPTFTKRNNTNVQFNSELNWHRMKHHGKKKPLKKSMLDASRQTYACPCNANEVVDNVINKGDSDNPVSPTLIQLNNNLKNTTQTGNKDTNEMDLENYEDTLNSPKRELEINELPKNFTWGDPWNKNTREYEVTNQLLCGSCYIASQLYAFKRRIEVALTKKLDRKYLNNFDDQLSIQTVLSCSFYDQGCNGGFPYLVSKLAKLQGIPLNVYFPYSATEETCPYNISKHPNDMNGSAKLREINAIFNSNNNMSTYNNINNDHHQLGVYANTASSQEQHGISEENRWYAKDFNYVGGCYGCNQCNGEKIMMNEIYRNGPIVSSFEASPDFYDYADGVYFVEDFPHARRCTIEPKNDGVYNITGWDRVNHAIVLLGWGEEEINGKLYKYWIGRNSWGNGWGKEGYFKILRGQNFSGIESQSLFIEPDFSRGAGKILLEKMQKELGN

Row | SMILES | % Inhibition @ 10 uM
1 | O=C(Cn1ncc2c3ccccc3nc-2c1O)NCCc1ccc(Cl)cc1 | 1.43%
2 | CCc1nnc(-n2nc(C)cc2-c2ccccc2)n1N | 4.67%
3 | Cc1ccc(S(=O)(=O)C2(C(=O)N3CC=C(c4ccccc4)CC3)CC2)cc1 | 4.63%
4 | Cc1cc(-c2ccccc2)nc(SCC(=O)O)n1 | 1.33%
5 | CCC(C)NS(=O)(=O)c1ccc(NC(=O)C2CCCO2)cc1 (stereo not shown) | -7.17%
6 | CC1CCc2sc3ncnc(N4CCN(C)CC4)c3c2C1 (stereo not shown) | -4.51%
7 | O=S(=O)(c1ccc(C2CCCCC2)cc1)N(CCCN1CCOCC1)Cc1cccs1 | -1.34%
8 | CCN1CCCC1CNC(=O)C1CCN(c2nnc(C)c3c(C)n(-c4ccccc4)nc23)CC1 (stereo not shown) | -5.35%
9 | CC(C)(C)c1ccc(C(=O)NCCCN2CCOCC2)cc1 | 7%
10 | CC1CC(C)CN(C(=O)C(NS(=O)(=O)c2ccc(Br)s2)c2ccccc2)C1 (stereo not shown) | -3.87%
11 | Cc1sc2ncnc(Nc3ccncc3)c2c1C | -0.711%
12 | CC1CCCCN1CCCNC(=O)C1CCN(c2nc3ccccc3o2)CC1 (stereo not shown) | -3.12%
13 | O=C(Cn1ncc2c3ccccc3n(Cc3ccccc3)c2c1=O)N1CCN(C(=O)c2ccco2)CC1 | 3.4%
14 | Cc1ccc(Cn2cnc3c(nnn3-c3ccc(C)cc3)c2=O)cc1 | -5.79%
15 | CCOc1ccc(C2C3=C(CC(C)(C)CC3=O)N(CCCOC)C3=C2C(=O)CC(C)(C)C3)cc1OC | -1.71%
16 | CC(NC(=O)CN(c1cccc(F)c1)S(C)(=O)=O)c1ccccc1 (stereo not shown) | -4.39%
17 | CCC(C)NS(=O)(=O)c1cc(C(=O)OC)n(C)c1 (stereo not shown) | 0.655%
18 | CC1CCCN(CCCNC(=O)C2c3ccccc3C(=O)N(C)C2c2cccs2)C1 (stereo not shown) | -10%
19 | COc1ccc(C2CC(C(F)(F)F)n3ncc(C(=O)NCCc4ccccc4)c3N2)cc1 (stereo not shown) | 4.19%
20 | CSc1ncc(C(=O)NCCCN2CCc3ccccc3C2)c(-c2ccccc2)n1 | -0.401%
21 | Cc1cccc(Nc2nc(-c3ccncc3)cs2)n1 | 4.96%
22 | COc1ccc(C(=O)Nc2nc3nc4c(c(O)n3n2)CCC4)cc1 | -1.31%
23 | CCN(CC)S(=O)(=O)c1cc(C(=O)NC2CCCCC2)ccc1Br | -4.58%
24 | O=C1NC(/C=C/c2ccccc2)=C(c2ccccc2)C(c2ccccc2)N1 (stereo not shown) | 15.1%
25 | COc1ccc(OC)c(C2C3=C(O)CCCC3=NC(C)=C2C(=O)Nc2ccccc2C)c1 (stereo not shown) | -8.35%

Row | SMILES | % Inhibition @ 10 uM
26 | CCCNC(=O)C1=C(C)C(=O)OC12CCN(Cc1ccccc1)CC2 | -0.234%
27 | COc1ccc2noc3c2c1C(=O)c1ccccc1-3 | -5.59%
28 | COc1ccc(-c2cc(OC(=O)c3ccco3)c3c(C)oc(C)c3c(=O)c2)cc1OC | 2.21%
29 | Cc1ccc2oc(=O)n(CCOc3ccc(Cl)cc3)c2c1 | 0.983%
30 | CCN(CC)c1ccc(C2C3=C(O)CC(C)(C)CC3=NC(C)=C2C(=O)OC)cc1 (stereo not shown) | -0.13%
31 | CC1CCCC(C)N1CCCNC(=O)NCc1noc2ccccc12 (stereo not shown) | -7.1%
32 | Cc1cc(C)c(S(=O)(=O)N2CCN(Cc3ccc4c(c3)OCO4)CC2)c(C)c1 | -1.81%
33 | O=C(O)c1c(CNCCc2ccccc2)c2ccccc2n1Cc1cccc(Cl)c1 | 3.54%
34 | COc1ccc(Cl)cc1-n1c(S)nnc1Cn1ncc2ccccc2c1=O | 0.627%
35 | C=CCOC(=O)CCC(=O)Nc1cccc2ccccc12 | -1.77%
36 | O=C(Nc1c(-c2ccccc2)nc2ccccn12)c1cccs1 | -3.75%
37 | O=C(O)c1ccccc1C(=O)NCCc1ccncc1 | -0.0735%
38 | CCN1/C(=C/C(C)=O)Sc2ccccc21 | -3.81%
39 | N#CC1=C(N)NC(SCc2ccccc2)=C(C#N)C12CCCCC2 | -2.47%
40 | CCOC(=O)c1cnc2nc(-c3ccco3)nn2c1O | -0.671%
41 | COc1ccc(/C(C)=C2\SC(N3CCOCC3)=NC2=O)cc1 | -3.41%
42 | CCc1ccc(-c2[nH]nc3nc(-c4ccc(O)cc4)cc(C(=O)O)c23)cc1 | -2.07%
43 | CC(C)C[C@H](NC(=O)c1coc(-c2ccccc2)n1)C(=O)NCC#N | 3.1%
44 | COc1ccc2c(c1)c(C(=O)O)c(C)n2C | 4.57%
45 | CCOC(=O)N1CCC(NC(=O)C2c3ccccc3C(=O)N(C)C2c2cn(C)c3ccccc23)CC1 (stereo not shown) | -3.87%
46 | Cc1ccc(S(=O)(=O)CCc2nc3ccccc3o2)cc1 | 1.26%
47 | Cc1ccc(S(=O)(=O)c2nnn3c2nc(NC2CCCCCC2)c2sccc23)cc1 | 1.68%
48 | Cc1cccc(CS(=O)(=O)Cc2ccc(C(=O)NCCC3=CCCCC3)o2)c1 | 0.718%
49 | COc1ccc(CNC(=O)C(Cc2ccccc2)NS(=O)(=O)c2cccc3nsnc23)cc1 (stereo not shown) | 2%
50 | COc1ccc(-c2csc3ncn(CC(=O)N4CCOCC4)c(=O)c23)cc1 | 8.62%

Row | SMILES | % Inhibition @ 10 uM
51 | COc1ccc(-c2nc(SCC(=O)NC3CCCC3)c(-c3ccccc3)[nH]2)cc1 | 0.163%
52 | CCCCCCN1C(=O)C(O)=C(C(C)=O)C1c1cccc(F)c1 (stereo not shown) | 3.05%
53 | CC(NC(=O)c1cccc(S(=O)(=O)N2CCOCC2)c1)C12CC3CC(CC(C3)C1)C2 (stereo not shown) | 0.661%
54 | CN1C(C(=O)NC(C)(C)CO)=CC(c2ccco2)=NS1(=O)=O | 2.32%
55 | Cc1ccc(OCC(=O)n2nc(C)c(Sc3ccccc3)c2C)cc1 | -0.169%
56 | COc1cc(OC)c(OC)cc1/C=c1\sc2nnc(-c3ccc(Cl)cc3)n2c1=O | -0.0735%
57 | CC1CCc2c(sc3nnn(CC(=O)NC4CCCCC4)c(=O)c23)C1 (stereo not shown) | -1.18%
58 | C=CC/N=C1\S/C(=C/N(C)C)C(=O)N1S(=O)(=O)c1ccc(C)cc1 | -2.12%
59 | O=C(/C=C/c1ccco1)NC(=S)Nc1ccc(S(=O)(=O)Nc2nccs2)cc1 | -1.42%
60 | CCOc1ccccc1N(CC(=O)NCc1cccnc1)S(C)(=O)=O | 0.528%
61 | COc1ccc(S(=O)(=O)Nc2cccnc2)cc1 | -1.03%
62 | FC(F)(F)c1cccc(CN2CCN(C/C=C/c3ccccc3)CC2)c1 | -0.969%
63 | Cc1cc(C)cc(Oc2c(C(F)(F)F)oc3c(CN4CCOCC4)c(O)ccc3c2=O)c1 | -6.94%
64 | CCc1nnc(NC(=O)CSc2nc3c(c(=O)n(C)c(=O)n3C)n2Cc2ccccc2F)s1 | -0.92%
65 | O=C(NC1CCCc2ccccc21)C1CCC(CNS(=O)(=O)c2cccs2)CC1 (stereo not shown) | -7.98%
66 | Cc1ccc(Cn2ccc(NC(=O)C3=CC(c4cccs4)=NS(=O)(=O)N3C)n2)cc1 | 6.98%
67 | CCOc1ccc2nc(N3CCC(C(=O)N4CCN(C5CCCCC5)CC4)CC3)sc2c1 | 1.8%
68 | COC(=O)c1c(NC(=O)NCc2ccccc2)sc2c1CCCC2 | 13.4%
69 | Cc1cccc(NC(c2ccccn2)c2ccc3ccc(C)nc3c2O)n1 (stereo not shown) | 2.43%
70 | CN1CCC(N(C)Cc2ccsc2)CC1 | 3.1%
71 | Cc1cc(C)c2c(C)nn(C(C)C)c2n1 | 0.968%
72 | O=C1/C(=C/c2cc(Br)cc([N+](=O)[O-])c2O)Sc2ccccc21 | 2.54%
73 | CCOC(=O)C1=C(C)N=c2s/c(=C\c3ccccc3OCC)c(=O)n2C1c1ccc(F)cc1 (stereo not shown) | 8.36%
74 | Cc1ccc(-c2n[nH]c3c2C(c2ccc(N(C)C)cc2)C(C#N)=C(N)O3)cc1 (stereo not shown) | 0.777%
75 | O=C(CCCNS(=O)(=O)c1cccc2nsnc12)NCc1ccc(Cl)cc1 | -3.23%

Row | SMILES | % Inhibition @ 10 uM
76 | COc1ccccc1/C=C(\C#N)c1nc(-c2ccc(Cl)cc2)cs1 | -0.693%
77 | Nc1c(C(=O)Nc2cccc(C(=O)O)c2)sc2nc3c(cc12)CCCCC3 | 9%
78 | CCC(C)NC(=O)Cc1c(C)nc2c(-c3ccc(F)cc3)c(C)nn2c1C (stereo not shown) | -0.72%
79 | CC(=O)Nc1ccc(CN(CCN(C)C)Cc2ccccc2)cc1 | 2.7%
80 | COC(=O)c1cccc(N2CCCC2=O)c1 | 6.56%
81 | CSc1ccc(C2C(C#N)=C(N)Oc3c2c(=O)oc2ccccc32)cc1 (stereo not shown) | 4.66%
82 | CCC1CCCCN1S(=O)(=O)c1ccc(NC(=O)COc2ccc(OC)cc2)cc1 (stereo not shown) | -4.52%
83 | CCOC(=O)N1CCN(C(=O)CSc2ccccc2)CC1 | 2.09%
84 | Cc1noc(C)c1S(=O)(=O)N1CCC2(CC1)OCCO2 | -3.57%
85 | CCOC(=O)C1=C(C)N=c2s/c(=C/c3ccc(Cl)cc3)c(=O)n2C1c1ccccc1 (stereo not shown) | -2.91%
86 | CCN(CC)CCNC(=O)CCCc1nnc2n3nc(-c4ccccc4)nc3c3ccccc3n12 | -4.69%
87 | N#Cc1nc(-c2ccccc2)oc1NCCN1CCCCC1 | -6.86%
88 | CCOCCCNC(=O)c1oc2c(c1C)-c1nn(Cc3ccccc3Cl)cc1CC2 | 9.79%
89 | CC1CN(c2nc3c(=O)n(C)c(=O)n(C)c3[nH]2)CC(C)O1 (stereo not shown) | 3.51%
90 | Cc1ccc(-n2nc(C)c3c(C(=O)NCC4CCN(CCc5cccs5)CC4)cc(C)nc32)cc1 | -3.1%
91 | O=C(c1cc(-c2cccnc2)on1)N1CCN(Cc2ccccc2)CC1 | -7.15%
92 | CCC(Oc1ccccc1)C(=O)Nc1nc(C)c(C(=O)N(C)C)s1 (stereo not shown) | -1.52%
93 | CCCCOc1ccc(-c2nc(/C=N/c3cc(C)on3)c(O)o2)cc1 | 2.11%
94 | CCOC(=O)c1[nH]c(C)c(C(=O)N2CCN(Cc3ccccc3)CC2)c1C | 1.72%
95 | Clc1cccc(/C=C/c2nn3c(-c4ccncc4)nnc3s2)c1 | 2.05%
96 | CCC(Sc1nc2cccnc2[nH]1)C(=O)NC1CCCC1 (stereo not shown) | 0.434%
97 | Cc1ccc(-c2cn3c(n2)sc2cc(C(=O)N4CCN(C(=O)c5ccco5)CC4)ccc23)cc1 | 21.9%
